# B1: MS2 coat protein; the commonest letter at each place (parent)
# chain: MASNFTQFVLVDNGGTGDVTVAPSNFANGVAEWISSNSRSQAYKVTCSVRQSSAQNRKYTIKVEVPKVATQTVGGVELPVAAWRSYLNMELTIPIFATNSDCELIVKAMQGLLKDGNPIPSAIAANSGIY
# Variants of: B1
# Assay: apparent fitness score (VLP assembly selection enrichment vs plasmid library) (log10 ratio); higher = better expression / assembly into well-formed VLPs
# 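Also: counts from Illumina MiSeq reads, cDNA of packaged RNA versus plasmid DNA taken before selection, each replicate independent from library construction onward, expression induced with 0.1% arabinose.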
row,Variant,apparent fitness score (log10)
1,MASNFTQFVLVDNGGTGDVTVAPSNFANGVAEWISSNSRSQAYKVTCSVRQSSIQNRKYTIKVEVPKVATQTVGGVELPVAAWRSYLNMELTIPIFATNSDCELIVKAMQGLLKDGNPIPSAIAANSGIY [A54I],0.0951
2,MASNFTQFVLVDNGGTGDVTVAPSNFANGVAEWISSNSRSQAYKVTCSVRQSSKQNRKYTIKVEVPKVATQTVGGVELPVAAWRSYLNMELTIPIFATNSDCELIVKAMQGLLKDGNPIPSAIAANSGIY [A54K],0.47
3,MASNFTQFVLVDNGGTGDVTVAPSNFANGVAEWISSNSRSQAYKVTCSVRQSSLQNRKYTIKVEVPKVATQTVGGVELPVAAWRSYLNMELTIPIFATNSDCELIVKAMQGLLKDGNPIPSAIAANSGIY [A54L],-0.0605
4,MASNFTQFVLVDNGGTGDVTVAPSNFANGVAEWISSNSRSQAYKVTCSVRQSSNQNRKYTIKVEVPKVATQTVGGVELPVAAWRSYLNMELTIPIFATNSDCELIVKAMQGLLKDGNPIPSAIAANSGIY [A54N],-0.087
5,MASNFTQFVLVDNGGTGDVTVAPSNFANGVAEWISSNSRSQAYKVTCSVRQSSPQNRKYTIKVEVPKVATQTVGGVELPVAAWRSYLNMELTIPIFATNSDCELIVKAMQGLLKDGNPIPSAIAANSGIY [A54P],0.517
6,MASNFTQFVLVDNGGTGDVTVAPSNFANGVAEWISSNSRSQAYKVTCSVRQSSQQNRKYTIKVEVPKVATQTVGGVELPVAAWRSYLNMELTIPIFATNSDCELIVKAMQGLLKDGNPIPSAIAANSGIY [A54Q],-0.087
7,MASNFTQFVLVDNGGTGDVTVAPSNFANGVAEWISSNSRSQAYKVTCSVRQSSRQNRKYTIKVEVPKVATQTVGGVELPVAAWRSYLNMELTIPIFATNSDCELIVKAMQGLLKDGNPIPSAIAANSGIY [A54R],0.429
8,MASNFTQFVLVDNGGTGDVTVAPSNFANGVAEWISSNSRSQAYKVTCSVRQSSSQNRKYTIKVEVPKVATQTVGGVELPVAAWRSYLNMELTIPIFATNSDCELIVKAMQGLLKDGNPIPSAIAANSGIY [A54S],0.235
9,MASNFTQFVLVDNGGTGDVTVAPSNFANGVAEWISSNSRSQAYKVTCSVRQSSTQNRKYTIKVEVPKVATQTVGGVELPVAAWRSYLNMELTIPIFATNSDCELIVKAMQGLLKDGNPIPSAIAANSGIY [A54T],-0.479
10,MASNFTQFVLVDNGGTGDVTVAPSNFANGVAEWISSNSRSQAYKVTCSVRQSSVQNRKYTIKVEVPKVATQTVGGVELPVAAWRSYLNMELTIPIFATNSDCELIVKAMQGLLKDGNPIPSAIAANSGIY [A54V],0.538
11,MASNFTQFVLVDNGGTGDVTVAPSNFANGVAEWISSNSRSQAYKVTCSVRQSSWQNRKYTIKVEVPKVATQTVGGVELPVAAWRSYLNMELTIPIFATNSDCELIVKAMQGLLKDGNPIPSAIAANSGIY [A54W],-0.386
12,MASNFTQFVLVDNGGTGDVTVAPSNFANGVAEWISSNSRSQAYKVTCSVRQSSYQNRKYTIKVEVPKVATQTVGGVELPVAAWRSYLNMELTIPIFATNSDCELIVKAMQGLLKDGNPIPSAIAANSGIY [A54Y],< -4
13,MASNFTQFVLVDNGGTGDVTVAPSNFANGVAEWISSNSRSQAYKVTCSVRQSSAANRKYTIKVEVPKVATQTVGGVELPVAAWRSYLNMELTIPIFATNSDCELIVKAMQGLLKDGNPIPSAIAANSGIY [Q55A],-0.627
14,MASNFTQFVLVDNGGTGDVTVAPSNFANGVAEWISSNSRSQAYKVTCSVRQSSACNRKYTIKVEVPKVATQTVGGVELPVAAWRSYLNMELTIPIFATNSDCELIVKAMQGLLKDGNPIPSAIAANSGIY [Q55C],-0.145
15,MASNFTQFVLVDNGGTGDVTVAPSNFANGVAEWISSNSRSQAYKVTCSVRQSSADNRKYTIKVEVPKVATQTVGGVELPVAAWRSYLNMELTIPIFATNSDCELIVKAMQGLLKDGNPIPSAIAANSGIY [Q55D],-0.962
16,MASNFTQFVLVDNGGTGDVTVAPSNFANGVAEWISSNSRSQAYKVTCSVRQSSAENRKYTIKVEVPKVATQTVGGVELPVAAWRSYLNMELTIPIFATNSDCELIVKAMQGLLKDGNPIPSAIAANSGIY [Q55E],-1.09
17,MASNFTQFVLVDNGGTGDVTVAPSNFANGVAEWISSNSRSQAYKVTCSVRQSSAFNRKYTIKVEVPKVATQTVGGVELPVAAWRSYLNMELTIPIFATNSDCELIVKAMQGLLKDGNPIPSAIAANSGIY [Q55F],-0.101
18,MASNFTQFVLVDNGGTGDVTVAPSNFANGVAEWISSNSRSQAYKVTCSVRQSSAGNRKYTIKVEVPKVATQTVGGVELPVAAWRSYLNMELTIPIFATNSDCELIVKAMQGLLKDGNPIPSAIAANSGIY [Q55G],< -4
19,MASNFTQFVLVDNGGTGDVTVAPSNFANGVAEWISSNSRSQAYKVTCSVRQSSAHNRKYTIKVEVPKVATQTVGGVELPVAAWRSYLNMELTIPIFATNSDCELIVKAMQGLLKDGNPIPSAIAANSGIY [Q55H],0.226
20,MASNFTQFVLVDNGGTGDVTVAPSNFANGVAEWISSNSRSQAYKVTCSVRQSSAINRKYTIKVEVPKVATQTVGGVELPVAAWRSYLNMELTIPIFATNSDCELIVKAMQGLLKDGNPIPSAIAANSGIY [Q55I],0.139
21,MASNFTQFVLVDNGGTGDVTVAPSNFANGVAEWISSNSRSQAYKVTCSVRQSSAKNRKYTIKVEVPKVATQTVGGVELPVAAWRSYLNMELTIPIFATNSDCELIVKAMQGLLKDGNPIPSAIAANSGIY [Q55K],0.537
22,MASNFTQFVLVDNGGTGDVTVAPSNFANGVAEWISSNSRSQAYKVTCSVRQSSALNRKYTIKVEVPKVATQTVGGVELPVAAWRSYLNMELTIPIFATNSDCELIVKAMQGLLKDGNPIPSAIAANSGIY [Q55L],-0.0154
